Screen size: about 310,000 compounds; about 2,200 (0.71%) showed an effect of 50% or more. Effects have a minus sign here. Some of the results follow.
What follows are compounds tested against human ether-à-go-go-related gene (hERG) potassium channel (human, UniProt Q12809) (assay: primary screen, population patch clamp on CHO cells stably expressing hERG).
human ether-à-go-go-related gene (hERG) potassium channel, sequence (Q12809 whole entry, looked up): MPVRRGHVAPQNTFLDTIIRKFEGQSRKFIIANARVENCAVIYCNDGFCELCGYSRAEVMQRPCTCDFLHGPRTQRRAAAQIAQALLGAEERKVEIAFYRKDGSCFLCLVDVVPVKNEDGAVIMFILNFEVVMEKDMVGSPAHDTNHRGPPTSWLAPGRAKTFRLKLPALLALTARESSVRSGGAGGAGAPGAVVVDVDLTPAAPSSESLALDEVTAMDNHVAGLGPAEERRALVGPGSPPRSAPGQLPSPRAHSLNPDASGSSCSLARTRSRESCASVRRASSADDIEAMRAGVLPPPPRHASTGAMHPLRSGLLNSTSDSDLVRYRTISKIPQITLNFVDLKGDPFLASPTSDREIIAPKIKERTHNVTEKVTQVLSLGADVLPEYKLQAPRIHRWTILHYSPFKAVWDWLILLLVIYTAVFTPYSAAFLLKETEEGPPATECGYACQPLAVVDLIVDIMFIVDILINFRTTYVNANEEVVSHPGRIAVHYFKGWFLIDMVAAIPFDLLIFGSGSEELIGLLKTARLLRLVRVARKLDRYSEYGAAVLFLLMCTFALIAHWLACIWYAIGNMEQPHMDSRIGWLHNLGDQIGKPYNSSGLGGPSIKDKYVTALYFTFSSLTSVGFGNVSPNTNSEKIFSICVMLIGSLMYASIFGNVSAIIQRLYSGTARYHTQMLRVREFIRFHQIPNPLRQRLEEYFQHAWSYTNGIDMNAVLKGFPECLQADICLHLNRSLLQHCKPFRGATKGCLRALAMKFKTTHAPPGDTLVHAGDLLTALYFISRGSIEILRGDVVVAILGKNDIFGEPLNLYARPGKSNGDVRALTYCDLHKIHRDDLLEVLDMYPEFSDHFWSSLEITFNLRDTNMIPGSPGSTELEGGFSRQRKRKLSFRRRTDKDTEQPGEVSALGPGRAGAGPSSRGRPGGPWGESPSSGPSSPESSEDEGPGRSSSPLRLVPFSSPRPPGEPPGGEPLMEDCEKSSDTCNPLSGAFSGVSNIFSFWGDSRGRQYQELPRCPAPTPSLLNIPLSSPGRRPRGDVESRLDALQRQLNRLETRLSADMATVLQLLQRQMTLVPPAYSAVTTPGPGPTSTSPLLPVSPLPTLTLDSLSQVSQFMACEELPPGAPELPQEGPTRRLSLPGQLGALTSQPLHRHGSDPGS

Compared with `Cc1onc(-c2ccc(Cl)cc2)c1-c1ccnn1S(=O)(=O)c1cccc(C(F)(F)F)c1`, `O=c1c2ccccc2nc(SCc2cccc(F)c2)n1-c1cccc(S(=O)(=O)N2CCCC2)c1` is higher in “hERG current change (%, negative = inhibition) at 1uM” value: 3.61% for the first, 14.1% for the second.

First: CCCCOCCCNC(=O)/C=C/c1ccccc1Cl
Second: O=C(NCCCCc1ccccc1)c1ccccc1F
The “hERG current change (%, negative = inhibition) at 1uM” value of the first is lower: 5.29% for the first, 12.5% for the second.

First: COc1cccc(/C=N/NC(=O)CNC(=O)c2cccs2)c1O
Second: C/C(=N/NC(=O)CNC(=O)c1ccncc1)c1ccco1
The “hERG current change (%, negative = inhibition) at 1uM” value of the first is higher: 15.2% for the first, -0.0025% for the second.

Compared with `CN(C)c1ccc(/C=N\NC(=O)CC#N)cc1`, `CCNC(=S)N/N=C/c1ccc(OCC(=O)Nc2ccc(OC)cc2)c(OC)c1` is higher in “hERG current change (%, negative = inhibition) at 1uM” value: 13.1% for the first, 13.7% for the second.

First: NC(=O)NC(c1ccccc1)c1ccccc1
Second: O=[N+]([O-])c1cccc(CP(=O)(c2ccccc2)c2ccccc2)c1
The “hERG current change (%, negative = inhibition) at 1uM” value of the first is lower: 8.55% for the first, 10.8% for the second.

Going from `Cn1c(=O)[nH]c(=O)c2c1nc(NCCc1ccccc1)n2CC(O)COc1ccccc1` (stereo not drawn) to `Cn1c(Cn2c(=O)sc3ccccc32)nnc1SCC(=O)NCc1ccco1`, the “hERG current change (%, negative = inhibition) at 1uM” value falls from 11.2% to -3.88%.

Going from `Br.CCc1nnc2n1N=C(c1ccccc1)CS2` to `c1ccc(-c2cn3cccnc3n2)cc1`, the “hERG current change (%, negative = inhibition) at 1uM” value falls from 12.7% to 12.4%.

Compared with `NC(=O)C1(NC(=O)[C@@H]2CC3(CC(c4cccc(NC(=O)c5cc([N+](=O)[O-])cc([N+](=O)[O-])c5)c4)=NO3)CN2C(=O)c2ccccc2)CC1` (stereo partly drawn), `CCCCNC(C(=O)Nc1cccc(S(=O)(=O)N2CCOCC2)c1)c1ccccc1` (stereo not drawn) is lower in “hERG current change (%, negative = inhibition) at 1uM” value: 10.1% for the first, -4.85% for the second.

Compared with `CC(C)c1ccc(N2C(=O)CC(Sc3ncccn3)C2=O)cc1` (stereo not drawn), `Cc1ccc2c(c1)N(CC(=O)c1cccc(Cl)c1)C(=O)C(C)O2` (stereo not drawn) is lower in “hERG current change (%, negative = inhibition) at 1uM” value: 6.92% for the first, -2.95% for the second.

Going from `CC(=O)N1CCN(c2ccc(NC(=O)COc3ccc(Cl)cc3Cl)cc2)CC1` to `Cn1c(=O)oc2cc(S(=O)(=O)NCCC(=O)N3CCN(c4ccccc4F)CC3)ccc21`, the “hERG current change (%, negative = inhibition) at 1uM” value falls from 16.9% to 8.47%.

Going from `CCN(C(=O)c1coc(=O)c(Br)c1)c1ccc2c(c1)OCO2` to `COc1ccc(-n2nnnc2CNC(=O)c2ccc3c(c2)OCO3)cc1`, the “hERG current change (%, negative = inhibition) at 1uM” value rises from 13.6% to 14.1%.

First: Cc1nn(C)c(C)c1CN(C)C(=O)C1(C)CC1(Br)Br (stereo not drawn)
Second: CC(C)(C)NC(=O)CN(C(=O)C1(C)CC(=O)N=C2C=CC=CN21)C1CCCC1 (stereo not drawn)
The “hERG current change (%, negative = inhibition) at 1uM” value of the first is higher: 5.58% for the first, 0.806% for the second.

Going from `CCOC(=O)C1CCN(C(=O)c2ccc(CNS(=O)(=O)c3ccc(C)cc3)cc2)CC1` to `CC(=O)Nc1ccc(S(=O)(=O)N2CCC(C(=O)NCc3ccco3)CC2)cc1`, the “hERG current change (%, negative = inhibition) at 1uM” value falls from 9.81% to 8.19%.

Going from `CC(C)(C)c1ccc(C(=O)Nc2nnc(SCC(=O)NCC3CCCO3)s2)cc1` (stereo not drawn) to `Cc1cccc(OCC(=O)NCC2CCCO2)c1C` (stereo not drawn), the “hERG current change (%, negative = inhibition) at 1uM” value falls from 8.34% to -5.97%.

Compared with `O=C(NNC(=S)NCc1ccco1)c1ccc(S(=O)(=O)N2CCOCC2)cc1`, `O=C(NNC(=O)c1cccc2ccccc12)c1ccco1` is higher in “hERG current change (%, negative = inhibition) at 1uM” value: 12.3% for the first, 14.7% for the second.

Going from `O=C(/C=C/c1ccccc1)Nc1ccc(Br)cn1` to `COCC(=O)Nc1ccc(-c2cn3cccnc3n2)cc1`, the “hERG current change (%, negative = inhibition) at 1uM” value falls from 10.4% to 6.22%.

Going from `COc1ccc(NC2CS(=O)(=O)CC2NCc2ccco2)cc1` (stereo not drawn) to `COc1ccc(S(=O)(=O)Cc2ccc(C(=O)O)o2)cc1`, the “hERG current change (%, negative = inhibition) at 1uM” value rises from 8.7% to 18.7%.

Going from `Cc1cc([N+](=O)[O-])ccc1NC1CCCC1` to `NC(=O)CC(NC(=O)Cc1ccc(Cl)cc1)c1ccc(NC2CCCC2)c([N+](=O)[O-])c1` (stereo not drawn), the “hERG current change (%, negative = inhibition) at 1uM” value rises from 5.77% to 9.22%.

First: Cc1ccc(N(Cc2cc(=O)[nH]c3ccccc23)C(=O)CCl)cc1
Second: Cc1ccc(N(CC(=O)NCc2ccc3c(c2)OCO3)C(=O)CCC(=O)Nc2ccccn2)cc1
The “hERG current change (%, negative = inhibition) at 1uM” value of the first is higher: 11.3% for the first, 8.99% for the second.

Going from `COc1ccc([C@H]2CC(=O)C=C(c3cc(Cl)cc(Cl)c3)C2)cc1` to `CCCCC1=CC2=CC(=O)C(C)(OC(=O)CC)C(=O)C2=CN1c1ccc(OC)cc1` (stereo not drawn), the “hERG current change (%, negative = inhibition) at 1uM” value falls from 15.1% to 4.57%.

Compared with `Cc1ccccc1C=O`, `CC(=O)Nc1cc(S(=O)(=O)Nc2ccccc2C)c(C)cc1C` is lower in “hERG current change (%, negative = inhibition) at 1uM” value: 7.1% for the first, 1.88% for the second.

Compared with `O=[N+]([O-])c1ccc(N2CCN(S(=O)(=O)Cc3ccccc3)CC2)cc1N1CCOCC1`, `COC(=O)CCN(C(=O)c1ccc(C)c([N+](=O)[O-])c1)c1ccccn1` is higher in “hERG current change (%, negative = inhibition) at 1uM” value: 0.81% for the first, 10.2% for the second.

First: C#CC(CC)(CC)NC(=O)Nc1ccc(OCC)cc1
Second: CCOc1ccc(N(C)S(=O)(=O)c2ccc(C)c(C(=O)NCc3ccccc3OC)c2)cc1
The “hERG current change (%, negative = inhibition) at 1uM” value of the first is lower: -2.15% for the first, 4.67% for the second.

First: CSc1ccc(/C=N/n2c(C3CCCCC3)n[nH]c2=S)cc1
Second: c1cnc2ccc(C(c3nnnn3C3CCCCC3)N3CCN4CCCC4C3)cc2c1 (stereo not drawn)
The “hERG current change (%, negative = inhibition) at 1uM” value of the first is higher: 18% for the first, -96.9% for the second.

Compared with `CCSc1nc(-c2ccco2)ccc1C#N`, `Cc1ccc(OCC(=O)Nc2c(C)ccc3nsnc23)cc1` is higher in “hERG current change (%, negative = inhibition) at 1uM” value: 1.41% for the first, 3.02% for the second.

First: COCc1cc(=O)[nH]c2c1c(-c1ccccc1)nn2C
Second: Cc1cc(=O)n2nc(N3CCCC3C(=O)Nc3ccccc3C)sc2n1 (stereo not drawn)
The “hERG current change (%, negative = inhibition) at 1uM” value of the first is higher: 13.8% for the first, 13.4% for the second.

First: CCC(C)N(C(=O)COC(=O)CNC(=O)c1ccccc1F)C1CCS(=O)(=O)C1 (stereo not drawn)
Second: CN(C(=O)CN1C(=O)/C(=C/c2ccccc2F)SC1=S)C1CCS(=O)(=O)C1 (stereo not drawn)
The “hERG current change (%, negative = inhibition) at 1uM” value of the first is lower: 4.27% for the first, 22.6% for the second.

First: COc1ccc2c(C)cc(C)nc2n1
Second: O=C(O)c1cc(N2C(=O)C3C4C=CC(C4)C3C2=O)ccc1NCc1cccnc1 (stereo not drawn)
The “hERG current change (%, negative = inhibition) at 1uM” value of the first is lower: 5.1% for the first, 8.78% for the second.

In the case of `COC(=O)c1ccccc1C(=O)N1CCC(CCC(=O)NC2CC2)CC1`, the “hERG current change (%, negative = inhibition) at 1uM” value is reported as 13.2%.
